# Data from paper PMC12040169 (PLOS Biology, 2025).
# Some of the results follow.
# System: T1, C. trachomatis L2/434/Bu expressing GFP (CTL2-GFP)
# T1 construct: L2/434/Bu GFP intracellular growth in HeLa cells
# Set-up: species or system HeLa; C. trachomatis total inclusion area by high-content imaging, normalised to DMSO
# Settings: total inclusion area; 28.5 h, 10 µM; inhibitor
# How it was run: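 Imaging read-out: GFP inclusions and Hoechst nuclei captured by high-content imaging after fixation. Inclusion area/number = chlamydial growth; nuclei count = host cell viability. MIC calculated per earlier method.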
row,SMILES,% of control remaining
1,CCN(CC)C(=O)CN1CCN(c2nccnc2Oc2ccc(F)cc2)CC1 [CBK083020T],102.993
2,C=CCN1C(=O)CC2(C1=O)C(=O)N(CCCn1c(=O)n(C)c3ccccc31)c1ccc(Cl)cc12 (centres unmarked) [CBK075411],109.934
3,Cc1ccc(C(=O)Nc2ccccc2C(=O)O)cc1S(=O)(=O)NCc1ccccc1 [CBK263212],98.945
4,COc1ccc(OC[C@@H](N)C(C)C)cc1 [CBK284299],80.3811
5,CCN(CC)C(=O)CN1CCN(c2nccnc2OCCN2C(=O)CCC2=O)CC1 [CBK084297],78.7901
6,CCc1ccc(CNC(=O)c2ccc3c(c2)NC(=O)C(N2CCOCC2)S3)cc1 (centres unmarked) [CBK071737],105.142
7,c1ccc(-c2nccnc2NCc2ccco2)cc1 [CBK088642],127.161
8,O=C(Nc1cc2ccccc2c(N2CCNCC2)n1)c1ccccc1 [CBK028423T],92.9483
9,COc1cccc(CC(=O)NCC(c2cccs2)N2CCOCC2)c1 (centres unmarked) [CBK305621],68.3072
10,Cc1noc(C)c1S(=O)(=O)NC1CCN(Cc2ccccc2)CC1 [CBK062028],84.969
11,C=CCc1ccc(OCC(=O)NN)c(OC)c1 [CBK261831],101.489
12,O=[N+]([O-])c1cc(S(=O)(=O)Nc2ccc3[nH]ncc3c2)ccc1Cl [CBK062537],84.6203
13,Cc1c(C(=O)NCCCCn2ccnc2)oc2c(C)cccc12 [CBK283315],89.7451
14,COc1cccc(Cn2c(=O)c3sccc3n(CC(=O)NCc3ccc(C)cc3)c2=O)c1 [CBK300533],93.4947
15,Cc1ccc(-c2nc(C)c(C(=O)NCc3ccnc(-n4ccnc4)c3)s2)o1 [CBK298322],70.762
16,Cc1cc(=O)[nH]c(SCCC(=O)O)n1 [CBK268242],100.91
17,O=C(NCCCc1ccccn1)c1cc(-c2cccs2)no1 [CBK282652],54.9192
18,O=S(=O)(c1ccc(OC(F)(F)F)cc1)N1CCc2ccccc21 [CBK044279],53.9935
19,COc1cc(C2c3c(-c4cc(C)c(C)cc4O)n[nH]c3C(=O)N2CCO)cc(Br)c1O (centres unmarked) [CBK269009],82.4105
20,CCCC/C=C/c1cncc(N2CCCC2CO)n1 (centres unmarked) [CBK065402],130.48
21,COCc1ccsc1C(=O)Nc1ncn(CC(=O)N2CCCCCC2)n1 [CBK304160],20.3104
22,CCN1CCN(Cc2cnc(-c3ccccn3)nc2)CC1=O [CBK306678],51.9439
23,Cc1nc(C2CCN(C(=O)c3ccn(C)n3)CC2)c2sccn12 [CBK285202],80.1903
24,N#CCCCN1CCCN(c2nccc(OCC3COc4ccccc4O3)n2)CC1 (centres unmarked) [CBK083977],93.6287
25,COCC1(C(=O)N2CC(=O)N(c3ccc(Cl)cc3)CC2C)CCC1 (centres unmarked) [CBK306674],60.4591

row,SMILES,% of control remaining
1,CCn1nc(NC(=O)CCn2c(C(F)F)cc3cccnc32)cc1C [CBK285072],103.517
2,Cc1ccc(Cc2cnc(NC(=O)NCCN3CCOCC3)s2)cc1F [CBK305449],63.3662
3,O=C(Nc1cccc(O)c1)c1ccc(NC(=O)C2CCCO2)cc1 (centres unmarked) [CBK269746],97.3872
4,c1ncc(N2CCCC2)nc1OCCN1CCOCC1 [CBK113430],94.3348
5,Cc1ccc2nc(-c3ccc(N4C(=O)CC(N5CCN(CCOCCO)CC5)C4=O)cc3)sc2c1 (centres unmarked) [CBK265362],83.7597
6,Cc1[nH]nc(Nc2ccc(I)cc2)c1[N+](=O)[O-] [CBK262748],94.5092
7,O=C(NC1CCCCC1)N[C@H]1CO[C@H]2[C@@H]1OC[C@@H]2n1cc(-c2ccccc2)nn1 [CBK289505],114.851
8,O=C(Nc1nnn[nH]1)C1(c2ccc([N+](=O)[O-])cc2)CCCC1 [CBK267237],123.993
9,O=C(O)CNC(=O)/C(=C\c1ccc(F)cc1)NC(=O)c1ccco1 [CBK263718],101.111
10,OCCC1CCCCN1c1cncc(-c2cccs2)n1 (centres unmarked) [CBK065758],89.1511
11,NC(=O)c1c(NC(=O)CCN2C(=O)c3cccc([N+](=O)[O-])c3C2=O)sc2c1CCCC2 [CBK263132],91.0278
12,CN(CC(=O)N1CCCCCC1)S(=O)(=O)c1cc(Cl)ccc1Cl [CBK091841],89.2987
13,CC(=O)Nc1cccc(-c2cnc(NCc3ccc4c(c3)OCO4)c(C(=O)NCC3COc4ccccc4O3)c2)c1 (centres unmarked) [CBK138473T],91.978
14,COC(=O)CCc1ccc(S(=O)(=O)N2CCN(Cc3cccc4cccnc34)CC2)cc1 [CBK062969],89.5149
15,OCC[C@H]1CN2CCCC2CN1Cc1cccn1-c1cccc(F)c1 (some centres unmarked) [CBK282985],105.431
16,O=C(C1=C(O)C(=O)N(Cc2cccnc2)C1c1ccc(Cl)cc1Cl)c1ccccc1 (centres unmarked) [CBK263367],101.602
17,COCCNC(=O)c1ccc(-c2cc(C)cs2)nc1NCC1CC1 [CBK106259],85.3844
18,Cc1ccc(CC(=O)N2CCC(c3ncc(C(=O)Nc4ccc(F)cc4)c(C)n3)CC2)cc1 [CBK285884],89.4282
19,COc1ccc2cc3c(nc2c1)OC(=O)N(CC1CC1)C3 [CBK282432],3.966
20,O=C(C1CCCCC1)N1CCC(c2nnc(-c3ccsc3)o2)CC1 [CBK283380],119.047
21,CS(=O)(=O)c1ccc(Nc2ncnc(N3CCC(Sc4ccccc4)CC3)c2[N+](=O)[O-])cc1 [CBK113567],113.026
22,O=C(c1cc(Cl)c[nH]1)N1CCN(Cc2cc(=O)n3ccsc3n2)CC1 [CBK306313],102.847
23,O=C(CN1C2CCC1CC(O)(c1ccco1)C2)N1CCCC1 (centres unmarked) [CBK284042],80.6873
24,Oc1cccc(OCCOc2cc(C(F)(F)F)ccn2)c1 [CBK115788],82.1507
25,Nc1nc(OCCc2cccs2)cnc1-c1ccc(OC(F)(F)F)cc1 [CBK145116],58.668
